PubChem BioAssay AID686979 (National Center for Advancing Translational Sciences (NCATS), 2013)
Several values for one entry are separate records, joined by “and”; a condition that tells them apart may be missing. Equal values may be shown once. About 50,000 (12%) of roughly 420,000 compounds were called active. This list was built around the results that the source calls inconclusive (neither active nor inactive); the mix of calls is not that of the screen. Calls come from the whole dose curve; as a rule, active = well fitted inhibition curve with a large enough effect; inconclusive = small, poorly fitted or top-dose-only effect; inactive = flat fitted curve, though single readings scatter. Where the call is inconclusive, the potency comes from a doubtful curve fit.

assay: qHTS for Inhibitors of human tyrosyl-DNA phosphodiesterase 1 (TDP1): qHTS in cells in presence of CPT; conditions: chicken DT40 Tdp1-/-;hTDP1 cells + 20 nM CPT, ATP luminescence, 48 h; series mostly up to 46.2 µM; note: nearly all actives have a fitted effect of over 55% in size
Summary of the method: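 Cell growth measured by CellTiter-Glo luminescence after a minimum 48 h, 37 C compound exposure with 20 nM CPT in Tdp1-knockout DT40 cells stably expressing hTDP1, seeded 400/well; qHTS titration format.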
Potency is the fitted concentration of half-maximal effect; tags give direction and shape of the fitted curve.

Q: With `Cn1c(=O)c2c(nc(CN3CCc4ccccc4C3)n2CC(=O)c2ccccc2)n(C)c1=O` as the compound, how does the Potency read?
A: Its Potency is active: 18.4 µM.

Q: With `Cc1cc(C)c(C(O)c2ncc(-c3ccccc3F)[nH]2)c(C)c1` (stereo unspecified) as the compound, how does the Potency read?
A: The Potency was active: 14.6 µM.

Q: Which Potency does the source give for `Cc1n[nH]c(=S)n1/N=C/c1ccccc1OCc1ccc(Cl)cc1Cl` here?
A: The Potency was inconclusive: 29.1 µM [inhibitor, single point].

Q: For `O=C1C=C(c2ccc(CO)cc2)C[C@@H](c2ccc3c(c2)OCO3)C1`, which Potency is on record?
A: The Potency was inconclusive: 20.6 µM [inhibitor, single point].

Q: Which Potency does the source give for `COc1ccc(CCN2CCCC(CN(C)C(=O)c3ccoc3)C2)cc1` (stereo unspecified) here?
A: The Potency was “inactive”.

Q: For `COc1ccc(NC(=O)CSCC(=O)Oc2c(OC)cccc2OC)cc1`, which Potency is on record?
A: The Potency was “inactive”.

Q: For `CCOC(=O)c1ccc(N=Cc2cnc(N)nc2N)cc1`, which Potency is on record?
A: The Potency was inconclusive: 25.9 µM [inhibitor, partial curve, poor fit].

Q: With `CC(=O)c1sc(NC(=O)c2ccccc2F)nc1C` as the compound, how does the Potency read?
A: Its Potency is “inactive”.

Q: Which Potency does the source give for `CC(=O)c1ccc(N2CCN(C(=O)C3CCN(C(=O)Nc4ccccc4)CC3)CC2)cc1` here?
A: The Potency was inconclusive: 18.4 µM [inhibitor, single point].

Q: For `CCOC(=O)c1c(Nc2ccc(OCC)cc2)nnc(-c2ccccc2)c1-c1ccccc1`, which Potency is on record?
A: Its Potency is active: 14.6 µM.

Q: With `O=C(CSc1nnc(-c2ccc(F)cc2)c2ccccc12)Nc1cccc(Cl)c1` as the compound, how does the Potency read?
A: The Potency was inconclusive: 18.4 µM [inhibitor, single point].

Q: With `COc1ccccc1C(=O)Nc1nnc(S(=O)(=O)N2CCCCC2)s1` as the compound, how does the Potency read?
A: The Potency was inconclusive: 16.4 µM [inhibitor, single point].

Q: Which Potency does the source give for `FC(F)Oc1ccc(-c2csc(=Nc3cccnc3)n2CC2CCCO2)cc1` (stereo unspecified) here?
A: Its Potency is active: 14.6 µM.

Q: With `O=C(NCCCn1ccnc1)c1cc(-c2ccc(Cl)cc2)nc2ccccc12` as the compound, how does the Potency read?
A: The Potency was inconclusive: 29.1 µM [inhibitor, single point].

Q: For `Cc1ccc[n+](CC(=O)/C=C2\N(C)c3ccccc3C2(C)C)c1`, which Potency is on record?
A: The Potency was active: 1.16 µM.

Q: For `CCn1c(=O)c(C(=O)CN2CCCc3ccccc32)c(N)n(Cc2ccccc2)c1=O`, which Potency is on record?
A: Its Potency is inconclusive: 29.1 µM [inhibitor, single point].

Q: Which Potency does the source give for `Cc1cccc2c1-c1sc(C(=O)NCCCN3CCC(C)CC3)cc1CO2` here?
A: The Potency was inconclusive: 29.1 µM [inhibitor, single point].

Q: For `COc1cc(NC(=O)CCCNC(=O)Cn2cnc3sc(C)c(C)c3c2=O)cc(OC)c1OC`, which Potency is on record?
A: Its Potency is “inactive”.

Q: For `COc1ccc2ncc3c(-c4ccccc4)nn(-c4ccc(C)c(C)c4)c3c2c1`, which Potency is on record?
A: Its Potency is active: 11.6 µM.

Q: For `O=C(CCCCl)Nc1nc(-c2ccc3c(c2)OCCO3)cs1`, which Potency is on record?
A: The Potency was inconclusive: 29.1 µM [inhibitor, single point].

Q: With `CC(C)(C)c1ccc(C(=O)NC(=S)NNC(=O)COc2ccccc2)cc1` as the compound, how does the Potency read?
A: The Potency was active: 13 µM.

Q: For `COc1ccc(/C=C/C2=Nc3ccccc3NC(C)(C)C2)cc1OC`, which Potency is on record?
A: Its Potency is inconclusive: 29.1 µM [inhibitor, single point].

Q: For `COc1ccccc1NC(=O)CSc1ncc(CO)n1Cc1ccc(F)cc1`, which Potency is on record?
A: The Potency was inconclusive: 29.1 µM [inhibitor, single point] and inconclusive: 25.9 µM [inhibitor, single point].

Q: For `Cn1c(=O)c2c(-c3ccccc3)n(-c3cc([N+](=O)[O-])ccc3N)cc2n(C)c1=O`, which Potency is on record?
A: The Potency was inconclusive: 20.6 µM [inhibitor, single point].

Q: With `Cc1cc(-c2ccccc2)nc2cc(C(=O)Nc3ccc(Cl)c(Cl)c3)nn12` as the compound, how does the Potency read?
A: The Potency was inconclusive: 13 µM [inhibitor, single point].

Q: With `Cc1cc2ccccc2c(=O)n1CC(=O)N1CCN(c2cccc(Cl)c2)CC1` as the compound, how does the Potency read?
A: The Potency was “inactive”.

Q: Which Potency does the source give for `Cc1nn(C)c(Cl)c1C(=O)NC(C(=O)O)c1ccccc1` (stereo unspecified) here?
A: The Potency was “inactive”.

Q: For `CN(c1ccccc1)S(=O)(=O)c1ccc(NC(=O)C2CC2)cc1`, which Potency is on record?
A: Its Potency is “inactive”.

Q: Which Potency does the source give for `CC(C)c1ccc2[nH]c(O)c(N=NC(=O)c3ccc(CSc4nncn4C)cc3)c2c1` here?
A: The Potency was active: 23.1 µM.

Q: Which Potency does the source give for `CCN1C2=NCCCN2c2cc(C)c(C)cc21` here?
A: Its Potency is inconclusive: 20.6 µM [inhibitor, single point].

Q: Which Potency does the source give for `Cc1ccc(C(=O)Nc2nnc(SCC(=O)N3CCCc4ccccc43)s2)cc1` here?
A: The Potency was “inactive”.

Q: For `COCC(C)n1c(SCC(=O)Nc2oc(C)c3c(C)n[nH]c(=O)c23)nc2ccccc2c1=O` (stereo unspecified), which Potency is on record?
A: Its Potency is inconclusive: 29.1 µM [inhibitor, single point].

Q: With `O=C(COC(=O)Cc1ccccc1F)NCc1ccccc1Cl` as the compound, how does the Potency read?
A: Its Potency is “inactive”.

Q: For `Cc1ccccc1NC(=O)Cn1c(=O)n(Cc2ccco2)c(=O)c2ccc(C(=O)NC3CCCC3)cc21`, which Potency is on record?
A: The Potency was “inactive”.

Q: For `O=C(c1ccc2c(=O)n3c(nc2c1)CCCCC3)N1CCN(c2ccccc2)CC1`, which Potency is on record?
A: The Potency was inconclusive: 29.1 µM [inhibitor, single point].

Q: For `NNC(=O)Cn1c(-c2nonc2N)nc2ccccc21`, which Potency is on record?
A: The Potency was “inactive”.

Q: With `Cc1cccc(N2CCN(C(=O)C3CCN(S(=O)(=O)Cc4ccccc4)CC3)CC2)c1C` as the compound, how does the Potency read?
A: The Potency was active: 7.31 µM.

Q: With `CCn1c2ccccc2c2cc(/C=C3/C=Cc4ccccc43)ccc21` as the compound, how does the Potency read?
A: The Potency was inconclusive: 35.5 µM [inhibitor, single point].

Q: With `O=C(NC1CCC(=O)N(CCSc2ccccc2)CC1)OCc1ccccc1` (stereo unspecified) as the compound, how does the Potency read?
A: Its Potency is inconclusive: 22.4 µM [inhibitor, single point] and inconclusive: 13 µM [inhibitor, partial curve].

Q: Which Potency does the source give for `COc1ccccc1N1CCN(C(=O)C2CCN(S(=O)(=O)c3cccs3)CC2)CC1` here?
A: Its Potency is active: 16.4 µM.

Q: For `CCN(CC)S(=O)(=O)c1ccc(OC)c(NC(=O)CSc2cc(C)ccc2C)c1`, which Potency is on record?
A: The Potency was inconclusive: 29.1 µM [inhibitor, single point].

Q: Which Potency does the source give for `COc1ccc(CCn2c(=N)c(C(=O)NC3CCCC3)cc3c(=O)n4cccc(C)c4nc32)cc1` here?
A: Its Potency is active: 1.46 µM.

Q: For `COCCNC(=O)c1onc(CSc2cccc(C)c2)c1C(=O)O`, which Potency is on record?
A: The Potency was “inactive”.

Q: With `COc1cccc(N2CCN(S(=O)(=O)c3cc4c(cc3Cl)NC(=O)CO4)CC2)c1` as the compound, how does the Potency read?
A: Its Potency is “inactive”.

Q: For `Cc1ccc(C)c(N(CC(=O)NC2CCCC2)C(=O)c2oc(C(C)(C)C)cc2C)c1`, which Potency is on record?
A: Its Potency is active: 8.2 µM.

Q: Which Potency does the source give for `C#CCOc1c(Br)cc(C2C(C(=O)OC)=C(C)NC3=C2C(=O)c2ccccc23)cc1OCC` (stereo unspecified) here?
A: The Potency was inconclusive: 25.9 µM [inhibitor, single point].
